# Experimental data reported in the supplement of paper PMC10369915.
# The list shows a part of the results. Cut-off read from the data, not from the text of the source: active = 3.2 or more and inactive = the rest. Most of these values are background signal.
# Legend:
# Test in all cases: enrichment score (SH2-bound / input frequency) (ratio); bacterial display of known human phosphotyrosine sites (pTyr-Var adds point mutants) read by sequencing; higher = stronger binding; tyrosines were phosphorylated by kinases first
# Conditions in all cases: peptide library: pTyr-Var
# SHP2 C-SH2 domain E139D = biological target: SHP2 C-SH2 domain E139D
# [1] = biological target: SHP2 C-SH2 domain wild-type
# SHP2 N-SH2 domain L43F = biological target: SHP2 N-SH2 domain L43F
# SHP2 N-SH2 domain T42A = biological target: SHP2 N-SH2 domain T42A
# SHP2 N-SH2 domain T52S = biological target: SHP2 N-SH2 domain T52S
# [2] = biological target: SHP2 N-SH2 domain wild-type
# 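Note: displayed peptides selected on beads carrying the immobilized SH2 domain, with library peptides lacking any tyrosine serving as negative controls.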
Binder,enrichment score (SHP2 C-SH2 domain E139D),enrichment score [1],enrichment score (SHP2 N-SH2 domain L43F),enrichment score (SHP2 N-SH2 domain T42A),enrichment score (SHP2 N-SH2 domain T52S),enrichment score [2]
LVFIKYLPEWT [PSEN1_Y240],active: 4.04,active: 4.09,active: 4.06,active: 3.2,active: 3.32,inactive: 3.18
GGFTWYCDGKK [PROS1_Y266_C265W_YF],inactive: 0.635,inactive: 0.899,inactive: 0.687,inactive: 0.601,inactive: 0.542,inactive: 1.06
LLVVLCKYRCY [PSEN1_Y154_Y154C],inactive: 3.13,inactive: 3.1,inactive: 3.05,inactive: 2.34,inactive: 2.8,active: 4.15
ECKEAYHEGEC [PRKN_Y372],inactive: 0.305,inactive: 0.373,inactive: 0.352,inactive: 0.316,inactive: 0.562,inactive: 0.572
MCITQYERESQ [PRNP_Y218],inactive: 0.739,inactive: 0.574,inactive: 0.607,inactive: 0.699,inactive: 0.639,inactive: 0.746
LIEQAYDNPHE [PRPF8_Y871],inactive: 0.669,inactive: 0.763,inactive: 0.852,inactive: 0.61,inactive: 0.751,inactive: 0.936
EFITRYIDSLK [PSMA7_Y110_A112D_YF],inactive: 1.01,inactive: 0.836,inactive: 0.97,inactive: 1.15,inactive: 1.36,inactive: 1.19
WISNRYLDFSS [PRPH2_Y184],inactive: 1.46,inactive: 1.15,inactive: 1.18,inactive: 1.19,inactive: 1.09,inactive: 1.11
PKSWNYELPAT [PROM1_Y34_A31S],inactive: 0.63,inactive: 0.449,inactive: 0.67,inactive: 0.533,inactive: 0.692,inactive: 0.426
MCITRYERESQ [PRNP_Y218_Q217R],inactive: 0.609,inactive: 0.415,inactive: 0.469,inactive: 0.433,inactive: 0.52,inactive: 0.478
CEDGTYSPEIS [PTDSS1_Y424],inactive: 0.762,inactive: 0.742,inactive: 0.699,inactive: 0.583,inactive: 0.645,inactive: 0.717
LLVVVYKFRCF [PSEN1_Y154_L153V_YF],inactive: 2.67,inactive: 2.82,inactive: 2,inactive: 2.37,inactive: 2.79,inactive: 2.76
GGYTRYCDGKK [PROS1_Y266_C265R],inactive: 0.712,inactive: 0.77,inactive: 0.672,inactive: 0.779,inactive: 0.791,inactive: 0.948
GESVSYLFSHV [PRPS1_Y311],inactive: 1.02,inactive: 1.47,inactive: 0.89,inactive: 1.65,inactive: 1.02,inactive: 0.956
ECKASYPGKIT [PRSS3_Y232],inactive: 0.653,inactive: 0.583,inactive: 0.639,inactive: 0.699,inactive: 0.754,inactive: 0.634
RVFIKYLPEWT [PSEN1_Y240_L235R],inactive: 2.23,inactive: 2.09,inactive: 2.3,inactive: 1.97,inactive: 2.22,inactive: 1.87
FEPWVYSLSFE [PRKDC_Y647_F649L_YF],inactive: 0.963,inactive: 0.753,inactive: 0.746,inactive: 0.817,inactive: 0.99,inactive: 0.896
EYITRYIDSLK [PSMA7_Y110_A112D],inactive: 1.36,inactive: 1.08,inactive: 1.38,inactive: 1.49,inactive: 1.15,inactive: 1.2
GGYTWYCDGKK [PROS1_Y266_C265W],inactive: 0.789,inactive: 0.984,inactive: 0.769,inactive: 0.865,inactive: 0.878,inactive: 1.39
